About 230 (0.21%) of roughly 110,000 compounds showed an effect of 50% or more. Some of the results follow.
What follows are compounds tested against DPAP1 (Plasmodium falciparum, UniProt Q8IIJ9) (assay: primary screen, percent inhibition; read by cleavage of a fluorogenic dipeptide substrate; higher = more effect of the substance).
Set-up: species or system P. falciparum D10 trophozoite lysates; single well
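Further: 30 min substrate incubation versus DMSO and 10 µM JCP410 controls.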

DPAP1, sequence (Q8IIJ9 whole entry, looked up): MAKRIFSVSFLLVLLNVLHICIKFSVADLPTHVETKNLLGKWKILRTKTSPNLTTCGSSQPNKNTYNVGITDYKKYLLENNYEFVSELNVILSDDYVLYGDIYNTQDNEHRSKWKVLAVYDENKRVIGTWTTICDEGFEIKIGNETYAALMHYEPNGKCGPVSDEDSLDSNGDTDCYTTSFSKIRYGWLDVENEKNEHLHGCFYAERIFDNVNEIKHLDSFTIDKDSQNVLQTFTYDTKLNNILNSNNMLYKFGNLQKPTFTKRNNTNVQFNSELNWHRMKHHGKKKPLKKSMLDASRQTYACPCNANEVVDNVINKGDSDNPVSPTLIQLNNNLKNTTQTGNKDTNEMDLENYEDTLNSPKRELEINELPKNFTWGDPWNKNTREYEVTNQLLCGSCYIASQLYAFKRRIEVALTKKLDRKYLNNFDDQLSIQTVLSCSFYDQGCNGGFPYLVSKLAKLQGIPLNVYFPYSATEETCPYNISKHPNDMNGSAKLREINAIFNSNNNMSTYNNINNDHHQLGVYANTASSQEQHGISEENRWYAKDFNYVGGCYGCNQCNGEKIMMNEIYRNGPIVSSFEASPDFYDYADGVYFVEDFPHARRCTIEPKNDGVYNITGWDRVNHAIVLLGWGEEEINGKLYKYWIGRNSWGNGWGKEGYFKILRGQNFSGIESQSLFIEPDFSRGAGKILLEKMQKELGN

Compound | % Inhibition @ 10 uM [%]
Cc1cccc(C(=O)Nc2cc(C)ccc2C)c1 | 2.46
Cc1csc(NC(=O)c2c(O)nc3ccccc3c2O)n1 | -2.78
Cc1ccc(S(=O)(=O)NC(C)C(=O)NC2CCCC2)cc1 (stereo not shown) | 1.27
O=C(NC12CC3CC(CC(C3)C1)C2)N1CCN(CCO)CC1 | -3.63
N#CC1=C(N)N(c2sc3c(c2C#N)C2CCN3CC2)C2=C(C(=O)CCC2)C1c1cccc(Cl)c1 (stereo not shown) | 0.883
N#CC1=C(N)Oc2cc(N)ccc2C1c1cccs1 (stereo not shown) | 2.58
C=C(C)[C@@H]1CC=C(CN(C)C2CCN(C)CC2)CC1 | -1.41
Cc1ccc(C)c(OCC(=O)Nc2ccc(S(=O)(=O)N3CCC(C)CC3)cc2)c1 | -3.33
C=CCC(C(=C)C)S(=O)(=O)c1ccc(C)cc1 (stereo not shown) | -4.76
COc1ccc2cc3c(N)nn(C(=O)Cc4c[nH]c5ccccc45)c3nc2c1 | 12.3
c1csc(C2=NN3C(C2)c2ccccc2OC32CCCC2)c1 (stereo not shown) | 3.43
Cc1ccc(S(=O)(=O)N(C)CC(=O)NCCCc2ccccc2)cc1 | 0.795
COc1ccc(F)cc1S(=O)(=O)N1CCCN(S(=O)(=O)c2cc(F)ccc2OC)CC1 | 3.81
COc1ccc2c(c1)c(C)c(C)n2CCc1ccc(C)nc1 | -0.962
Cc1[nH]c2ccccc2c1/C=C(\C#N)C(=O)NCc1ccccc1 | -5.2
O=c1oc2ccccc2c(N2CCN(C3CCCCC3)CC2)c1CN1CCCC1 | -1.68
COc1ccccc1CNC(=O)C1C2C=CC3(CN(Cc4cccs4)C(=O)C13)O2 (stereo not shown) | -0.503
Cc1c(C(=O)NC(C)c2ccccc2)oc2ccc3c(c12)C(=O)CC1(CCCC1)O3 (stereo not shown) | 0.623
O=C1c2cccc3cccc(c23)C(=O)N1CCCC(=O)N1CCc2ccccc21 | -5.31
O=S(=O)(NCc1ccc(F)cc1)c1ccc(-c2ccc(O)nn2)s1 | 1.06
O=C(O)C1C2C=CC(C2)C1C(=O)Nc1cccc(Br)c1 (stereo not shown) | -0.0217
CC(C)(C)C1CCC(N2CCC(O)CC2)CC1 (stereo not shown) | -1.81
Cc1ccccc1Cn1c(CNC(=O)C(C)(C)C)nc2ccccc21 | 6.66
O=C(CO/N=C/c1ccccc1)Nc1nc2ccccc2s1 | -6.23
N#Cc1cc2c(nc1Cl)CCCC2 | 2.03

Compound | % Inhibition @ 10 uM [%]
CSc1ncc(C(=O)N2CCN(Cc3ccccc3)CC2)c(C)n1 | 3.69
CC(C)(C)OC(=O)N1CCN(S(=O)(=O)c2ccc(-n3cnnn3)cc2)CC1 | 4.18
COc1ccc(/C=C2\S/C(=N/c3ccc(C(=O)O)cc3)N(C)C2=O)c(C)c1 | 9.14
CCn1cc(C(=O)N2CCN(C(=O)c3ccco3)CC2)c2cc(OC)c(OC)cc2c1=O | 2.73
CCOc1ccc(-c2c(C)s/c(=N\C(=O)c3cccnc3)n2C)cc1 | -7.89
CCCCSc1nc(O)c2cnn(-c3ccc(C)cc3)c2n1 | -1.54
Cc1noc(C)c1S(=O)(=O)N1CCC(C(=O)Nc2ccccn2)CC1 | -0.148
CCN(Cc1ccccc1)S(=O)(=O)c1cc(-c2onc(C)c2C)ccc1C | -6.07
CC1=C(CSCc2ccccc2)CS(=O)(=O)C1 | -6.36
CCN(CC)S(=O)(=O)c1ccc(NC(=O)Cc2ccc(OC)cc2)cc1 | -7.46
Cc1cc(C)n(CCc2nc3c4ccccc4nc(NCCCOC(C)C)n3n2)n1 | 0.981
COc1cc(-c2noc(CCCC(=O)N3CCOCC3)n2)cc(OC)c1OC | -2.92
CC(NC(=O)Cc1ccc(F)cc1)C(c1cccs1)N1CCOCC1 (stereo not shown) | -4.74
O=C1OC(c2ccco2)=N/C1=C\c1ccc(Cl)c(Cl)c1 | 5.94
COc1ccc(C(=O)Nc2ccccc2C(C)C)cc1OC | -2.6
N#CCNC(=O)C1(NC(=O)c2ccc(N3CCOCC3)cc2)CCc2ccccc2C1 (stereo not shown) | 1.7
CCOc1ccc(-c2cc(N)n(S(=O)(=O)c3cc(Cl)sc3Cl)n2)cc1 | 1.15
CNS(=O)(=O)c1cn(CC(=O)NCc2ccc3c(c2)OCO3)cc1S(=O)(=O)NC | -4.18
COc1ccc(OC)c([C@@H](O)C2CCCCN2C(C)=O)c1 (stereo partly shown) | -0.95
COc1ccc(C2CC(C(F)(F)F)n3nc(C(=O)N4CCN(C)CC4)c(Cl)c3N2)cc1 (stereo not shown) | -8.3
CCc1ccc(C2c3c(-c4ccccc4O)n[nH]c3C(=O)N2CCCO)cc1 (stereo not shown) | 2.02
O=C(c1ccc(N2CCN(CCO)CC2)nc1)N1CCOCC1 | -3.33
O=C(CN1C(=O)c2cccc3cccc1c23)Nc1cccc2ccccc12 | 3.17
O=C1C2CC=C(Cl)CC2C(=O)N1CCNC1CCCCC1 (stereo not shown) | 3.05
O=C(CSC1CC(=O)N(c2ccccc2F)C1=O)Nc1cccc(Cl)c1 (stereo not shown) | -8.76

Compound | % Inhibition @ 10 uM [%]
CCN(CC)CCNC(=O)Cn1c(-c2ccccn2)nc2ccccc21 | -5.92
CCOC(=O)c1c(NC(=O)C23CC4CC(CC(C4)C2)C3)sc(C(C)=O)c1C | -4.8
CCOc1ccc(/C=c2/sc3nc(=O)c(Cc4ccc(F)cc4)nn3c2=O)cc1OCC | -0.499
Oc1ccccc1-c1nc(-c2ccccc2)no1 | 4.03
CCCN(CCO)Cc1c(F)cccc1Cl | 1.08
COc1cccc(-n2cnc(=O)c3cccnc32)c1 | 0.245
CCCOC(=O)c1cc(-c2ccccc2)nc2ccccc12 | -5.08
COc1ccc(C(=O)NCCN2CCCC2)cc1OC | -2.66
O=C(NCCNC(=O)c1ccncc1)c1ccncc1 | 1.54
COc1ccccc1NC(=O)c1c(NC(=O)CN2CCCC(C)C2)sc2c1CCC2 (stereo not shown) | 5.29
Cc1ccc2occ(CC(=O)Nc3sc4c(c3C(=O)NCc3ccco3)CCCC4)c2c1 | 2.62
O=C(Nc1nc[nH]n1)c1c(Cl)ccc(Cl)c1Cl | 4.86
CCOc1ccccc1-c1noc(CCCC(=O)NCc2ccco2)n1 | -0.946
COc1ccc2cc3cc(C(=O)NCCC4=CCCCC4)sc3nc2c1 | 3.07
CC1(C)Cc2nc3[nH]nc(N)c3cc2CO1 | 3.54
CC(C)N1C(=O)S/C(=C/c2ccc(Sc3nc4ccccc4[nH]3)o2)C1=O | 6.58
Cn1c(=O)[nH]c2nc(-c3ccccc3)n(C)c2c1=O | 1.05
COC(=O)c1c(C)nc2ccccc2c1C(=O)O | 3.67
COc1cc(CNC(=O)CCn2nc(C)c3c(C)n(-c4ccccc4)nc3c2=O)cc(OC)c1OC | -4.77
CCNc1sc(S(=O)(=O)c2ccccc2)nc1S(=O)(=O)c1ccc(C)cc1 | 0.401
O=C(NCc1ccccn1)c1ccccc1Cl | 5.06
O=C(c1ccc2nc(NC(=O)C34CC5CC(CC(C5)C3)C4)sc2c1)N1CCOCC1 | -6.02
COCCNC(=O)C1CC(c2cc(OC)c(OC)c(OC)c2)=NO1 (stereo not shown) | -3.94
CC1CCN(C(=O)CSc2nnc(-c3cccs3)o2)CC1 | -0.999
O=C(Cn1nc(Cc2cccnc2)c2ccccc2c1=O)NCc1ccc(F)cc1 | 0.44

Compound | % Inhibition @ 10 uM [%]
CC(CCc1ccccc1)N[C@H]1CC[C@H](O)CC1 (stereo partly shown) | -5.11
O=C(Cn1nnc2ccccc21)Nc1cccc(C(F)(F)F)c1 | -2.77
CCOc1ccc(C2N3CC4(C)CN2CC(C)(C3)C4=O)cc1OC (stereo not shown) | -3.08
O=C(NCc1ccc(F)cc1Cl)c1coc(=O)c2ccccc12 | -3.31
CC1(C)CC2=Nc3ccc4ncccc4c3C(c3ccccn3)C2=C(O)C1 (stereo not shown) | 2.67
CN(CC1CCCO1)C1CCN(S(=O)(=O)c2ccc(-c3cc(C(F)(F)F)no3)s2)CC1 (stereo not shown) | -0.342
COc1ccccc1CNC(=O)C1CCC(CNS(=O)(=O)c2cccc3cccnc23)CC1 (stereo not shown) | -4.44
Cc1noc(C)c1S(=O)(=O)N1CCC(C(=O)N(CCO)Cc2ccccc2)CC1 | 2.55
COCCN1C(=O)c2ccccc2C(C(=O)NC2CCCCC2)C1c1cn(C)c2ccccc12 (stereo not shown) | 3.51
O=C(NCCc1ccc(Cl)cc1)C(NS(=O)(=O)c1cccs1)c1ccccc1 (stereo not shown) | -4.79
NC(=O)C1CCN(Cc2cccc(Cl)c2Cl)CC1 | 0.217
CCOC(=O)c1cc(Br)ccc1-c1ccc(/C=C2\C(=O)NC(=O)C(C#N)=C2C)o1 | 2.17
O=C(NCCN1CCOCC1)c1cc(-c2ccc(Cl)c(Cl)c2)nc2ccccc12 | 2.03
COc1ccc(-c2csc3ncn(C(C)C(=O)O)c(=O)c23)cc1OC (stereo not shown) | -2.98
COc1cc(OC)cc(C(=O)N2CCN(Cc3ccc(F)cc3)CC2)c1 | 0.361
O=C(NC1CC1)c1ccc(COc2c(F)c(F)cc(F)c2F)o1 | -5.07
CC(C)c1ccc(/C=C/c2cc(=O)n3ccsc3n2)cc1 | -2.23
Cc1c(C(c2cc3c(cc2Cl)OCO3)c2c(C)n(C)n(-c3ccccc3)c2=O)c(=O)n(-c2ccccc2)n1C | -1.5
CC1=C(C(=O)Nc2cccc(C)c2)C(c2ccc(O)cc2)NC(S)=N1 (stereo not shown) | -5.94
CC(C)=C1C2C=CC1C1C(=O)N(c3cc(Cl)ccn3)C(=O)C21 (stereo not shown) | 0.317
O=[N+]([O-])c1ccc(N2CCSCC2)nc1 | 0.162
CCOc1ccc(C(=O)NCc2ccccn2)cc1 | -1.44
COc1ccc(OC)c(-c2cc(C(=O)NCc3ccc(F)cc3)no2)c1 | -2.55
COc1ccc(S(=O)(=O)N(C)CC(=O)NCc2cccnc2)cc1 | 2.78
Cc1ccc(-c2ccc(=O)n(CC(=O)N3CC(C)CC(C)C3)n2)cc1 (stereo not shown) | -2.99
